Reference: PubChem BioAssay (NCI)
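These data come from cells grown in 96-well plates and exposed to compound for 48 hours at five concentrations. The concentration for 50% growth inhibition is given as GI50. TGI: concentration producing complete growth inhibition.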 Activity calls are given as the source filed them. Rule as the data show it: active = GI50 below about 0.43 µM; inactive = the rest.

What follows are compounds tested on NCI-H322M lung (assay: DTP human tumour cell line panel, 48 h).

Row | Compound | GI50 [µM] | TGI [µM] | outcome
1 | C[N+]1=C(/C=C/c2ccc(O)c3ncccc23)C(C)(C)c2ccccc21 | 3.03 | 12.7 | –
2 | C=C1[C@H](OC(C)=O)[C@H]2[C@@H](OC(C)=O)[C@@H](C)C[C@]2(C)C(=O)[C@H](C)/C=C/C(C)(C)C(=O)[C@H](OCC(C)C)[C@H]1OC(C)=O | – | > 25 | –
3 | CCC[CH2][Sn]1([CH2]CCC)[O]C(=O)CN=Cc2c(ccc3ccccc23)[O]1 | > 100 | > 100 | –
4 | N#CSC1CCCCNC1=O (stereo not drawn) | – | 31.7 | –
5 | O=c1[nH]nc(-c2ccccc2)n1-c1ccncc1 | – | > 100 | –
6 | OCCCNc1nc(=S)[nH]c2[nH]ncc12 | > 100 | > 100 | –
7 | O=C(O)c1nn(-c2ccccc2-c2n[nH]c(=O)[nH]c2=O)c(=O)[nH]c1=O | – | > 100 | –
8 | Clc1ccccc1-c1nc2ccc(C34CC5CC(CC(C5)C3)C4)cc2[nH]1 | – | > 100 | –
9 | COc1cc(C(=O)CBr)c(OC)cc1C | – | > 100 | –
10 | CC(C)NC(NC(C)C)=C(S(=O)(=O)C(F)(F)C(F)(F)C(F)(F)C(F)(F)F)S(=O)(=O)C(F)(F)C(F)(F)C(F)(F)C(F)(F)F | – | > 100 | –
11 | CC(=O)N(C(C)=O)n1c(Cc2ccc(Cl)cc2)n[nH]c1=O | – | > 100 | –
12 | O=c1cc(N2CCNCC2)nc2ccccn12 | – | > 100 | –
13 | O=[N+]([O-])c1ccc(C=NC2CCCCC2)cc1 | – | > 100 | –
14 | Nc1cccc(S(=O)(=O)NCC(=O)O)c1 | – | > 100 | –
15 | CCOC(=O)CCCNC(=O)CCCCC(=O)N(C)C | – | > 100 | –
16 | NC(=S)N1N=C2c3ccccc3CC[C@@H]2[C@@H]1c1ccccc1 | – | > 100 | –
17 | Cc1c(C)c(C)n(C2OC(CO)C(O)C(O)C2O)c(=S)c1C#N (stereo not drawn) | – | > 100 | –
18 | O=S(=O)(O)C1=C2Sc3ccccc3N=C2c2ccccc2C1 | – | 30.3 | –
19 | O=C(N/N=C/C=C/c1ccccc1)[C@H](O)[C@@H](O)C(=O)N/N=C/C=C/c1ccccc1 | – | > 100 | –
20 | NC(=O)NS(=O)(=O)c1ccc(N2N=C(C(F)(F)F)CC2c2cc(C(F)(F)F)cc(C(F)(F)F)c2)cc1 (stereo not drawn) | 10.2 | 24.4 | –
21 | COc1ccc2c(c1)-c1nc(=S)n(CCCN(C)C)c3ccc([N+](=O)[O-])c(c13)N2 | – | 16 | –
22 | Cc1ccc(C(=O)N(CCCN)C(c2oc3cc(Cl)ccc3c(=O)c2Cc2ccccc2)C(C)C)cc1 (stereo not drawn) | < 0.01 | 2.02 | –
23 | C#CCNC(=O)c1cccc2c1cc(C)n2-c1nc2c(c(NCc3ccccc3)n1)CCCC2 | 0.248 | 0.613 | –
24 | O=C(CCN(C(=O)O)S(=O)(=O)c1ccc(NC(=O)c2ccccc2)cc1)NC1CCCCC1 | – | > 100 | –
25 | Cc1cc2c(cc1Cl)SC1=NN(C)S(=O)N1S2(=O)=O (stereo not drawn) | > 100 | > 100 | –

Row | Compound | GI50 [µM] | TGI [µM] | outcome
26 | CCN(CC)C(c1ccc(N(C)C)cc1)C(c1ccc(N(C)C)cc1)N(CC)CC (stereo not drawn) | – | > 73 | –
27 | O=C1CCC2(c3ccccc3)Nc3ccncc3N12 (stereo not drawn) | – | > 10 | –
28 | CCCCCCCC[C@@H](O)CC(=O)N[C@@H](CC(N)=O)C(=O)N[C@@H](CCC(N)=O)C(=O)N[C@@H](CC(=O)c1cc(C)cc(O)c1C(=O)c1c(O)cccc1O)CC(C)C | 28.9 | > 100 | –
29 | CC1OC(OC2C(OC(=O)[C@]34CCC(C)(C)CC3C3=CCC5[C@@]6(C)C[C@H](O)[C@H](OC7OC(CO)C(O)C(O)C7N)[C@@](C)(C(=O)O)C6CC[C@@]5(C)C3(C)CC4)OCC(O)C2O)C(O)C(O)C1OC1OCC(O)C(O)C1O (stereo partly drawn) | – | > 100 | –
30 | COc1ccc(C(=O)C#Cc2cnc(OC)nc2OC)cc1 | – | 28.5 | inactive
31 | Cc1cc(C)c2c(O)c(S(=O)(=O)c3ccc(Cl)cc3)c(=O)oc2c1 | – | > 100 | –
32 | COc1ccc2nc3c(C(=O)NCCN(C)C)cccc3nc2c1 | – | 38.4 | –
33 | COc1ccc(-c2onc(N)c2-c2cc(OC)c3c(c2)OCO3)cc1 | 6.38 | > 100 | –
34 | NC1=NC(c2ccccc2)CC(c2cc(Cl)ccc2O)=N1 (stereo not drawn) | – | 35.8 | –
35 | O=C(O)CCC(=O)Nc1ccc2ccccc2c1 | – | > 100 | –
36 | CCCCC(=O)c1ccc2ccccc2c1O | – | > 100 | –
37 | c1ccc2c(c1)CC1=C(O2)c2ccccc2OC1 | – | > 100 | –
38 | CC(=O)Oc1cc(Cl)c(C)c2c1[C@H]1CC[C@]3(C)[C@@H](OC(C)=O)CC[C@H]3[C@@H]1CC2 | – | > 100 | –
39 | O=C1c2cccc([N+](=O)[O-])c2C(=O)N1c1ncn[nH]1 | – | > 100 | –
40 | CCOC(=O)c1cc2c([nH]1)c(O)cc1c2ccn1Cc1ccccc1 | – | 46.6 | –
41 | O=C(O)c1ccccc1/C=N/NC1=NCCN1 | – | > 100 | –
42 | Cc1ccc2c(c1)Sc1c(ccc3ccccc13)N2 | > 100 | > 100 | –
43 | O=C(NC12CC3CC(CC(F)(C3)C1)C2)c1ccccc1 | – | > 100 | –
44 | CCN(CC)CCn1nc(N)c2nc3ccccc3nc21 | – | > 100 | –
45 | O=C(O)C(CS)Nc1c2ccccc2nc2ccccc12 (stereo not drawn) | – | > 100 | –
46 | N#Cc1c(=O)n(-c2ccccc2)c(O)c2c(N)n[nH]c12 | – | > 100 | –
47 | COC(=O)C1=C(O)C(C(=O)OC)[C@]2(O)[C@H](C(=O)OC)[C@H]1C[C@@H](c1ccc(Cl)cc1)[C@H]2C(=O)OC (stereo partly drawn) | – | 23.3 | –
48 | NC12CC3CC(C1)CC(C(=O)O)(C3)C2 | – | > 100 | –
49 | Nc1nccc(-c2c(-c3ccc(F)cc3)ncn2C2CCC(O)CC2)n1 (stereo not drawn) | 8.08 | > 25 | –
50 | CCCCCCCCn1ccc2cc(NC(=O)Cn3cc(CN4CCCC4)nn3)ccc21 | 1.63 | 3.15 | –
